# Results reported in the supplement of paper PMC8728848.
# The list shows a part of the results.
# Experiments:
# Assay in all cases: glycan array binding signal (z-score within array); higher = stronger binding
# Conditions in all cases: glycan notation: IUPAC condensed, linker removed; mutation: Y228A
# [1] = target: Neu5Ac(a2-3)Gal(b1-4)GlcNAc(b1-3)[Neu5Ac(a2-3)Gal(b1-4)GlcNAc(b1-6)]GalNAc
# Outline: (§1)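 Glycan array data were curated from 3228 arrays in the Consortium for Functional Glycomics database and kept only where the protein sequence was available. Glycan names were converted to IUPAC-condensed notation, and columns mapping to the same glycan were averaged. The binding signal is a within-array Z-score, averaged across arrays of the same protein sequence at different concentrations or buffers and across linkers. Negative Z-scores can be read as non-binding.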
# [2] = target: Neu5Ac(a2-3)Gal(b1-4)GlcNAc(b1-6)GalNAc
# Outline: as §1
# [3] = target: Neu5Ac(a2-3)Gal(b1-4)GlcNAc(b1-6)[Gal(b1-3)]GalNAc
# Outline: as §1
# [4] = target: Neu5Ac(a2-3)Gal(b1-4)GlcNAc(b1-6)[Neu5Ac(a2-3)Gal(b1-3)]GalNAc
# Outline: as §1
# [5] = target: Neu5Ac(a2-3)Gal(b1-4)GlcNAc6S
# Outline: as §1
# [6] = target: Neu5Ac(a2-3)Gal(b1-4)[Fuc(a1-3)]GlcNAc
# Outline: as §1
# [7] = target: Neu5Ac(a2-3)Gal(b1-4)[Fuc(a1-3)]GlcNAc(b1-2)Man
# Outline: as §1
# [8] = target: Neu5Ac(a2-3)Gal(b1-4)[Fuc(a1-3)]GlcNAc(b1-3)Gal
# Outline: as §1
# [9] = target: Neu5Ac(a2-3)Gal(b1-4)[Fuc(a1-3)]GlcNAc(b1-3)Gal(b1-4)GlcNAc
# Outline: as §1
# [10] = target: Neu5Ac(a2-3)Gal(b1-4)[Fuc(a1-3)]GlcNAc(b1-3)Gal(b1-4)[Fuc(a1-3)]GlcNAc(b1-3)Gal(b1-4)[Fuc(a1-3)]GlcNAc
# Outline: as §1
# [11] = target: Neu5Ac(a2-3)Gal(b1-4)[Fuc(a1-3)]GlcNAc(b1-3)GalNAc
# Outline: as §1
# [12] = target: Neu5Ac(a2-3)Gal(b1-4)[Fuc(a1-3)]GlcNAc(b1-6)[Gal(b1-3)]GalNAc
# Outline: as §1
# [13] = target: Neu5Ac(a2-3)Gal(b1-4)[Fuc(a1-3)]GlcNAc(b1-6)[Neu5Ac(a2-3)Gal(b1-3)]GalNAc
# Outline: as §1
# [14] = target: Neu5Ac(a2-3)Gal(b1-4)[Fuc(a1-3)]GlcNAc6S
# Outline: as §1
# [15] = target: Neu5Ac(a2-3)Gal6S(b1-4)GlcNAc
# Outline: as §1
# [16] = target: Neu5Ac(a2-3)Gal6S(b1-4)[Fuc(a1-3)]GlcNAc
# Outline: as §1
# [17] = target: Neu5Ac(a2-3)GalNAc
# Outline: as §1
# [18] = target: Neu5Ac(a2-3)GalNAc(b1-4)GlcNAc
# Outline: as §1
# [19] = target: Neu5Ac(a2-3)[GalNAc(b1-4)]Gal(b1-4)Glc
# Outline: as §1
# [20] = target: Neu5Ac(a2-3)[GalNAc(b1-4)]Gal(b1-4)GlcNAc
# Outline: as §1
# [21] = target: Neu5Ac(a2-3)[GalNAc(b1-4)]Gal(b1-4)GlcNAc(b1-3)GalNAc
# Outline: as §1
# [22] = target: Neu5Ac(a2-3)[Neu5Ac(a2-6)]GalNAc
# Outline: as §1
# [23] = target: Neu5Ac(a2-6)Gal
# Outline: as §1
# [24] = target: Neu5Ac(a2-6)Gal(b1-3)GlcNAc(b1-3)[Gal(b1-4)GlcNAc(b1-6)]Gal(b1-4)Glc
# Outline: as §1
# [25] = target: Neu5Ac(a2-6)Gal(b1-4)Glc
# Outline: as §1
# [26] = target: Neu5Ac(a2-6)Gal(b1-4)GlcNAc
# Outline: as §1
# [27] = target: Neu5Ac(a2-6)Gal(b1-4)GlcNAc(b1-2)Man
# Outline: as §1
# [28] = target: Neu5Ac(a2-6)Gal(b1-4)GlcNAc(b1-2)Man(a1-3)Man(b1-4)GlcNAc(b1-4)GlcNAc
# Outline: as §1
# [29] = target: Neu5Ac(a2-6)Gal(b1-4)GlcNAc(b1-2)Man(a1-3)[Gal(b1-4)GlcNAc(b1-2)Man(a1-6)]Man(b1-4)GlcNAc(b1-4)GlcNAc
# Outline: as §1
# [30] = target: Neu5Ac(a2-6)Gal(b1-4)GlcNAc(b1-2)Man(a1-3)[GlcNAc(b1-2)Man(a1-6)]Man(b1-4)GlcNAc(b1-4)GlcNAc
# Outline: as §1
# [31] = target: Neu5Ac(a2-6)Gal(b1-4)GlcNAc(b1-2)Man(a1-3)[GlcNAc(b1-4)][Neu5Ac(a2-6)Gal(b1-4)GlcNAc(b1-2)Man(a1-6)]Man(b1-4)GlcNAc(b1-4)GlcNAc
# Outline: as §1
binder,measurement,setting,value
"Epa1-NP-mutant-Y228A (Candida glabrata), Q6VBJ0 (protein) MILNPALFLNKCVCIYTTLILLLLTNGGYATSSNDISLASKDPTTFPLGCSPDITTPKKGLSMELYSYDFRKKGSYPCWDAAYLDPNYPRTGYKSHRLLAKVDGVTGNINFYYHATKGCTPQLGHLPASYNYPKPLTMTNFTMLLYGYFRPKVTGFHTFTISADDLLFVNFGAGNAFDCCRRDSSADHFGNYQAYAIWGSKTAKDELTVHLDAGVYYPIRLFYNNREADGALSFTFKTESNENTVSDFSEYFFSLDDTEEGCPGLISYDSSCASVKTSKIIGIDYHTETPNENLVPITKTIYHLGIPCTGTTTTPLCGSGFYDPLANKCVTINTSSTSSVTKTTSHTTSKEVSFHSSISSQKTLIPKSIPSPYGPIKSQSIPTEMETSSEISSSEYAFSDVISTPSHSPYTKKHSSLNSSSYTSTVIHSLTSYSISQGIFSTSLSEQNITSKSSTDKFSTATSMSNNITQSSIIISQFSTNNENYTTTSMHTSSDKISTETLNNSISTTTSILFSNSSTILKNNTTIISSDKDTHYHPVNPTIVCSTNKTEIICASITQPSISNSNNHWSSSVLKFNSTTVRSTLPSSAGSNETSINVPFSSSTESNTSTSSTSTSNSKMVRSTLPSSAGSNETSISVPFSSSTESNTSTSSTSTSNSKMVRSTLPSSAGSNETSINVPFSSSTESNTSTSSTSTSNSKTVRSTPFSSAGIIMTSLSQRNNKSASSYASSNSKCYNTADSCRKVHSTPSYLLTSSYTSEGVDYDCSLVSTKLKINDTNCVNNKHTTKSCLKTSVTTTIPTLEIKTARKSSSNTIGLHSYPTSSPNKSISSAPIIGYISSFKTIKTASPSYQTSDLTTITTITSLNNPGSTAVENTHESNDKSRKTSSNDISSKHSVIKETKDAVESSNKSHQTNTLKCSSIIIASSSHNSYESLGGTTLTLTLSKVYSPQNNDTLPFLEISEVNPSRTVLPESSKMMQYLTSTEERNKTARNTIATNIVSISTFHFEGEGNAIRMGYTQLLLMLIGIIVMNIGT",glycan array binding signal (z-score),[1],-0.181
same,glycan array binding signal (z-score),[2],-0.085
same,glycan array binding signal (z-score),[3],-0.158
same,glycan array binding signal (z-score),[4],-0.24
same,glycan array binding signal (z-score),[5],-0.331
same,glycan array binding signal (z-score),[6],-0.209
same,glycan array binding signal (z-score),[7],-0.274
same,glycan array binding signal (z-score),[8],-0.259
same,glycan array binding signal (z-score),[9],-0.142
same,glycan array binding signal (z-score),[10],-0.299
same,glycan array binding signal (z-score),[11],0.221
same,glycan array binding signal (z-score),[12],-0.086
same,glycan array binding signal (z-score),[13],-0.157
same,glycan array binding signal (z-score),[14],-0.057
same,glycan array binding signal (z-score),[15],-0.249
same,glycan array binding signal (z-score),[16],-0.304
same,glycan array binding signal (z-score),[17],-0.049
same,glycan array binding signal (z-score),[18],-0.271
same,glycan array binding signal (z-score),[19],-0.194
same,glycan array binding signal (z-score),[20],-0.122
same,glycan array binding signal (z-score),[21],-0.181
same,glycan array binding signal (z-score),[22],-0.296
same,glycan array binding signal (z-score),[23],-0.224
same,glycan array binding signal (z-score),[24],-0.085
same,glycan array binding signal (z-score),[25],-0.187
same,glycan array binding signal (z-score),[26],-0.241
same,glycan array binding signal (z-score),[27],-0.108
same,glycan array binding signal (z-score),[28],-0.236
same,glycan array binding signal (z-score),[29],-0.248
same,glycan array binding signal (z-score),[30],-0.313
same,glycan array binding signal (z-score),[31],-0.266
